Laboratory results reported in the supplement of paper PMC12217912.
The list shows a part of the results. The full chains were built here from the parent and the listed change. Values near 0.05 are background.

B1: TEV protease; numbered along this chain (parent)
chain: MGESLFKGPRDYNPISSSICHLTNESDGHTTSLYGIGFGPFIITNKHLFRRNNGTLVVQSLHGVFKVKDTTTLQQHLVDGRDMIIIRMPKDFPPFPQKLKFREPQREERICLVTTNFQTKSMSSMVSDTSCTFPSGDGIFWKHWIQTKDGQCGSPLVSTRDGFIVGIHSASNFTNTNNYFTSVPKNFMELLTNQEAQQWVSGWRLNADSVLWGGHKVFMVKPEEPFQPVKEATQL

Variants of: B1
Assay: raw area under fraction-flipped curve 0-4 h after induction (AUC4h, not background-subtracted), DNA-recorder readout of cleavage of the substrate (dimensionless); higher = more cleavage of the substrate by the protease variant
Conditions: temperature: 34 °C; time window: 0-4 h after rhamnose induction
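Further: Bxb1 expression induced with 0.2% (w/v) L-rhamnose at OD600 near 0.5, cultures sampled hourly, flipped fraction per protease–substrate barcode pair counted by paired-end Illumina sequencing.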

Variant | area with substrate ENLYFQC | area with substrate ENLYFQG | area with substrate ENLYFQH | area with substrate ENLYFQK | area with substrate ENLYFQL | area with substrate ENLYFQM | area with substrate ENLYFQR | area with substrate ENLYFQS | area with substrate ENLYFQI | area with substrate ENLYFQV | area with substrate ENLYFQW | area with substrate ENLYFQE | area with substrate ENLYFQN | area with substrate ENLYFQQ | area with substrate ENLYFQY | area with substrate ENLYFQF | area with substrate ENLYFQD | area with substrate ENLYFQP | area with substrate ENLYFQT
W203M | 0.0706 | 0.0649 | 0.053 | 0.0621 | 0.0497 | 0.0606 | 0.0657 | 0.0707 |  |  |  |  |  |  |  |  |  |  | 
V67K | 0.0591 | 0.0938 | 0.076 | 0.0542 |  |  | 0.059 | 0.0671 | 0.0585 | 0.07 | 0.039 |  |  |  |  |  |  |  | 
V229A | 0.137 |  | 0.0804 | 0.0506 | 0.0527 | 0.0917 | 0.0126 | 0.0991 |  |  | 0.07 | 0.0535 | 0.0558 | 0.0485 | 0.0755 |  |  |  | 
T70P | 0.0841 |  |  | 0.0619 | 0.0683 | 0.0755 | 0.0617 | 0.0751 |  |  | 0.0738 |  | 0.0638 |  | 0.0766 | 0.0708 |  |  | 
T23D | 0.0916 | 0.0912 |  |  | 0.0588 | 0.077 |  | 0.0969 |  | 0.0617 |  |  | 0.0719 |  | 0.0786 | 0.0696 | 0.0539 | 0.0407 | 0.0596
S124H | 0.109 |  | 0.0839 | 0.0892 |  |  | 0.0573 | 0.103 | 0.0667 |  | 0.0618 |  | 0.106 |  | 0.0755 |  |  |  | 
L73H | 0.0588 | 0.0632 |  |  | 0.0521 | 0.0649 |  | 0.0564 | 0.0662 | 0.064 |  |  | 0.0681 | 0.0355 |  |  |  | 0.0469 | 0.0448
T147H | 0.0556 |  | 0.0714 | 0.0708 | 0.0578 | 0.0597 | 0.0713 | 0.0607 | 0.057 |  |  | 0.0808 | 0.0616 | 0.0375 | 0.0512 |  | 0.0356 |  | 0.052
P93T | 0.107 | 0.104 |  | 0.0512 | 0.0626 | 0.0852 | 0.056 | 0.099 |  |  | 0.0701 |  |  |  |  |  |  | 0.0668 | 0.0779
L73K | 0.0534 |  |  |  | 0.0462 | 0.0495 |  | 0.0525 | 0.0715 |  | 0.049 | 0.0565 |  |  | 0.0558 | 0.046 |  | 0.0453 | 
G162K | 0.0863 | 0.0516 |  | 0.0574 | 0.0539 | 0.094 | 0.0616 | 0.0954 |  |  |  |  | 0.0648 | 0.0878 |  |  |  |  | 0.0638
S124L | 0.12 |  |  |  | 0.054 | 0.0845 | 0.0436 | 0.0904 |  | 0.0524 |  |  |  |  |  |  |  |  | 
N172G | 0.0707 | 0.104 |  |  | 0.0638 | 0.0444 |  | 0.0697 | 0.0577 |  |  |  |  |  | 0.0558 | 0.0423 | 0.0382 |  | 0.0653
T71R | 0.158 | 0.0614 | 0.092 | 0.0534 | 0.0522 | 0.132 | 0.0586 | 0.0987 | 0.0523 | 0.0381 | 0.0787 |  | 0.0754 |  | 0.0713 |  |  |  | 0.0678
T119V | 0.121 | 0.111 | 0.0753 |  | 0.0658 |  | 0.0445 | 0.101 |  |  | 0.068 |  |  |  |  |  | 0.0692 |  | 0.0691
I139R | 0.11 | 0.107 |  | 0.0638 | 0.0538 | 0.0748 | 0.0643 | 0.091 | 0.0525 | 0.0571 | 0.065 |  | 0.073 |  | 0.0588 |  |  |  | 0.0604
